The source of these data is article PMC4336329 (PLoS ONE, 2015).

Each structure is given as a SMILES string. Out of some 310,000 compounds screened, about 2,200 (0.71%) showed an effect of 50% or more. Effects have a minus sign here. Some of the results follow.

human ether-à-go-go-related gene (hERG) potassium channel, sequence (Q12809 whole entry, looked up): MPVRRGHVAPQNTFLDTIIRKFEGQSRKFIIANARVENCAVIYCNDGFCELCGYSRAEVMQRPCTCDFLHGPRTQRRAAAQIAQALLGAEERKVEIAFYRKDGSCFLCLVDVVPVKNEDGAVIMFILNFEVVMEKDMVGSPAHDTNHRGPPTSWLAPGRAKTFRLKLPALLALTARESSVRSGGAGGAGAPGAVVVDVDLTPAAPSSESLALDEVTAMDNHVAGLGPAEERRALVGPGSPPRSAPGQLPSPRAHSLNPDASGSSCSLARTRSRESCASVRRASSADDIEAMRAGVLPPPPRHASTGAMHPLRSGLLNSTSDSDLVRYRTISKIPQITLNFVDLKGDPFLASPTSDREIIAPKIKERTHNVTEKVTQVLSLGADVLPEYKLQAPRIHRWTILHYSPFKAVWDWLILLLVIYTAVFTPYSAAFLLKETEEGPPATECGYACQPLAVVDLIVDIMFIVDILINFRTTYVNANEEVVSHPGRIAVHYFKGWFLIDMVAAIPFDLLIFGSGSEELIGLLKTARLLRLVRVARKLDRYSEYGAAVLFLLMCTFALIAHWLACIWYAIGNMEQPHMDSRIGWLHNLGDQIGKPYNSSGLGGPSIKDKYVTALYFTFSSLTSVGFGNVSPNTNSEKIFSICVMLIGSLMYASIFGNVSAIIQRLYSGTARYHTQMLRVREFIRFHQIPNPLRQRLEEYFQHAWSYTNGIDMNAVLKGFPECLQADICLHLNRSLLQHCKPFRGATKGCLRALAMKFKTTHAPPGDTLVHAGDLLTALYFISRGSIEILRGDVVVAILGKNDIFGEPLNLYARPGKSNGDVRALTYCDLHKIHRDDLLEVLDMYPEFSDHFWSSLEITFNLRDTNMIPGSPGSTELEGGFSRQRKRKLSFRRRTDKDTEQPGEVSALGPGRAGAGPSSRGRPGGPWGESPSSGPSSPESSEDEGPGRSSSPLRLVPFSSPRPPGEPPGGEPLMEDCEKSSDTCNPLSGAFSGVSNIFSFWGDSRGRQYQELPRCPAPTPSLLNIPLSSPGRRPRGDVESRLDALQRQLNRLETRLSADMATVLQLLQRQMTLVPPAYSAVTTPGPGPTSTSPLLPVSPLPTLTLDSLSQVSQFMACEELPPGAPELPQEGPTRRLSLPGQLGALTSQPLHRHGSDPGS

This test addresses human ether-à-go-go-related gene (hERG) potassium channel (human, UniProt Q12809). The test can be described thus: primary screen, population patch clamp on CHO cells stably expressing hERG.
Regarding `Cc1cccc(N(CC(O)CN(C)C)S(=O)(=O)c2ccccc2)c1.Cl` (centres unmarked), the “hERG current change (%, negative = inhibition) at 1uM” value is recorded as -50.1%.
Regarding `Cc1ccc(NC(=O)c2cc(-c3cccs3)nc3ccccc23)nc1`, the “hERG current change (%, negative = inhibition) at 1uM” value stood at 10.5%.
As to `COc1cccc(S(=O)(=O)c2nc(C)c3c(n2)CCC3)c1`, the “hERG current change (%, negative = inhibition) at 1uM” value is on record as -30.7%.
`Cc1ccc(NC(=O)CNC(=O)Cn2cnc3sc(C)c(C)c3c2=O)cc1F`: the “hERG current change (%, negative = inhibition) at 1uM” value was determined as 12.2%.
Turning to `O=C(CCSCc1ccccc1Cl)NC1CCCCC1`, the “hERG current change (%, negative = inhibition) at 1uM” value is 23.2%.
For the compound `COc1cccc(N2CCN(C(=O)c3ccc(CS(=O)c4ccccc4Cl)o3)CC2)c1` (centres unmarked), the “hERG current change (%, negative = inhibition) at 1uM” value is -10.7%.
For the compound `CC(C)C(=O)NC(=S)Nc1ccc(S(=O)(=O)N2CCCC2)cc1`, the “hERG current change (%, negative = inhibition) at 1uM” value is 14.2%.
Consider `CC1CCC(=NNc2ccc(C(F)(F)F)cc2[N+](=O)[O-])CC1` (centres unmarked), for which the “hERG current change (%, negative = inhibition) at 1uM” value is reported as 11.4%.
On to `Nc1nnn(CC(=O)N/N=C/c2cccc3ccccc23)n1`, for which the “hERG current change (%, negative = inhibition) at 1uM” value was 3.93%.
With `CCN(CC)c1ccc(C(=O)O)cc1`, the “hERG current change (%, negative = inhibition) at 1uM” value is given as 6.39%.
In the case of `CCc1ccccc1Nc1nc(N)nc(CSc2nnc3ccccn23)n1`, the “hERG current change (%, negative = inhibition) at 1uM” value was determined as 10.5%.
Under `CN1C(C(=O)Nc2ccc(OC(F)(F)F)cc2)=CC(c2ccc3c(c2)OCO3)=NS1(=O)=O` stands 14.9%.
For `COc1ccccc1CNC(=O)c1ccc(Br)o1`, the “hERG current change (%, negative = inhibition) at 1uM” value is on record as 6.07%.
For `Cc1cc(O)cc(=O)n1CCc1ccccc1`, the “hERG current change (%, negative = inhibition) at 1uM” value is on record as 13.3%.
With `Cn1cc(C(=O)C(=O)N2CCOCC2)c2ccccc21`, the “hERG current change (%, negative = inhibition) at 1uM” value turned out to be 3.16%.
On to `CCOC(=O)N1CCc2c(sc(NC(=O)CN(CC)CC)c2C#N)C1`, for which the “hERG current change (%, negative = inhibition) at 1uM” value was 9.35%.
For the compound `CC1CCc2cccc3c2N1c1cc(C#N)c(C#N)cc1O3` (centres unmarked), the “hERG current change (%, negative = inhibition) at 1uM” value is given as -1.5%.
Take `O=C(Nc1ccc(S(=O)(=O)Nc2ccccn2)cc1)C(F)(F)F`: the “hERG current change (%, negative = inhibition) at 1uM” value worked out at 3.12%.
Consider `O=C(c1cc(-c2ccco2)on1)N1CCc2ccccc2C1`, for which the “hERG current change (%, negative = inhibition) at 1uM” value is recorded as 13.4%.
In the case of `CCN(CC)S(=O)(=O)c1ccc(N2CCCC2)c(NC(=O)CC(C)(C)C)c1`, the “hERG current change (%, negative = inhibition) at 1uM” value was 7.53%.
With `O=C(O)CCC(=O)CCC(=O)c1ccc(Cl)cc1`, the “hERG current change (%, negative = inhibition) at 1uM” value is on record as 11.7%.
As to `COCc1ccc(C(=O)NC2CC(C)(C)Cc3c2cnn3-c2ccc(C)cc2)o1` (centres unmarked), the “hERG current change (%, negative = inhibition) at 1uM” value was -1.08%.
As for `COC(=O)C1CN(C(=O)COc2ccc(C)c(C)c2)c2ccccc2O1` (centres unmarked), the “hERG current change (%, negative = inhibition) at 1uM” value came out at 9.99%.
Regarding `CCN(CC)C(=O)Cn1cc(S(=O)(=O)CC(=O)Nc2cc(C)on2)c2ccccc21`, the “hERG current change (%, negative = inhibition) at 1uM” value is on record as -0.677%.
The same measure for `CN1/C(=C/C(=O)c2cccs2)Sc2ccccc21`: 15.5%; for `CC(C)C(=O)Nc1nnc(SCC(=O)NC2CC2)s1`: 11.1%.
For the compound `O=S(=O)(c1cccs1)N1CN(Cc2ccccc2)c2nc3ccccc3nc21`, the “hERG current change (%, negative = inhibition) at 1uM” value is on record as -2.11%.
Turning to `CCc1nc2ccc(C(=O)Nc3ccc(NC(C)=O)cc3)cc2nc1CC`, the “hERG current change (%, negative = inhibition) at 1uM” value is recorded as 13.2%.
As to `S=C(Nc1cccc(Cl)c1)Nc1ccc2c(c1)OCCO2`, the “hERG current change (%, negative = inhibition) at 1uM” value is 18.2%.
On to `COCCNC(=O)C1CCCN(S(=O)(=O)c2c(C)noc2/C=C/c2cccs2)C1` (centres unmarked), for which the “hERG current change (%, negative = inhibition) at 1uM” value is given as 0.102%.
Under `CC(=O)c1ccc(OC(=O)c2cc3ccccc3oc2=O)cc1` stands 7.83%; under `O=C(COC(=O)Cc1cccs1)Nc1ccccc1F`, 8.8%; under `Cc1nc([N+](=O)[O-])cn1Cc1cccc2ccccc12`, 9.37%.
As to `CCCCN(C(=O)c1ccc(Cl)c(S(=O)(=O)N2CCOCC2)c1)c1c(N)n(CCC)c(=O)[nH]c1=O`, the “hERG current change (%, negative = inhibition) at 1uM” value is 8.98%.
For the compound `Cc1cc(Cl)ccc1NC(=O)C1CCN(S(C)(=O)=O)CC1`, the “hERG current change (%, negative = inhibition) at 1uM” value is reported as 7.3%.
Under `CCOC(=O)C1=C(C)NC2=C(C(=O)CC(C)(C)C2)C1c1cccc(C)n1` (centres unmarked) stands -1.71%; under `CCOC(=O)c1ccccc1Cc1nc2ccccc2c(=O)[nH]1`, 5.37%.
Consider `COc1cc(NC(=O)CSCC(=O)Nc2cc(OC)cc(OC)c2)cc(OC)c1`, for which the “hERG current change (%, negative = inhibition) at 1uM” value is listed as 5.8%.
With `Nc1nc(SCC(=O)Nc2ccc3c(c2)OCO3)n[nH]1`, the “hERG current change (%, negative = inhibition) at 1uM” value is 9.29%.
The same measure for `Cc1ncsc1C(=O)N1CCCC(C(=O)c2ccc3ccccc3c2)C1` (centres unmarked): 13.3%; for `Cc1cccc(-n2ncc(C#N)c2-n2cccc2)c1`: 4.1%.
Take `CC1CCN(C(=O)c2cc(N3C(=O)C4C5CCC(C5)C4C3=O)ccc2Cl)CC1` (centres unmarked): the “hERG current change (%, negative = inhibition) at 1uM” value is reported as 1.42%.
With `CCOc1ccc(S(=O)(=O)N(CC)CC(=O)NCc2ccncc2)cc1C`, the “hERG current change (%, negative = inhibition) at 1uM” value was found to be 11.1%.
With `CS(=O)(=O)O.Cc1cccc(/C=C2/C(=O)/C(=C/c3ccccc3C)C3CCC2N3C)c1` (centres unmarked), the “hERG current change (%, negative = inhibition) at 1uM” value amounted to 8.95%.
Consider `COc1ccc(C(=S)N2CCCCC2)cc1Br`, for which the “hERG current change (%, negative = inhibition) at 1uM” value amounted to 15.6%.
Regarding `CN(C)CCCNC(=S)N(Cc1cccs1)Cc1cc2cc3c(cc2[nH]c1=O)OCCO3`, the “hERG current change (%, negative = inhibition) at 1uM” value was 11.7%.
As to `CCC1COCCS(=O)(=O)N1Cc1ccccc1C` (centres unmarked), the “hERG current change (%, negative = inhibition) at 1uM” value turned out to be 1.86%.
In the case of `Cc1ccccc1CNC(=O)c1ccccc1NS(C)(=O)=O`, the “hERG current change (%, negative = inhibition) at 1uM” value is on record as 10.8%.
Under `COC(=O)C1=C(c2ccc(F)cc2OCc2ccccc2)C[C@@H]2CC[C@H]1N2C(=O)N1CCCCC1` stands 3.4%; under `COC(=O)C1=C(C)N(Cc2ccco2)C(=O)N[C@H]1c1ccccc1`, 6.02%; under `CCCCNC(=O)NC1C(NC(=O)NCCCC)N(C)C(=O)N1C` (centres unmarked), 12.1%.
Under `COc1ccc(CNCC(O)COc2ccc(C(C)(C)c3ccccc3)cc2)cc1.O=C(O)C(=O)O` (centres unmarked) stands 12.2%.
In the case of `CSc1ccc(CN(C)C(=O)C2CCN(C(=O)Nc3ccccc3)CC2)cc1`, the “hERG current change (%, negative = inhibition) at 1uM” value was -34.1%.
The same measure for `CCOc1ccc(C(=O)Nc2ccc(N3CCN(C(C)=O)CC3)cc2)cc1[N+](=O)[O-]`: 3.18%; for `O=C(c1cc([N+](=O)[O-])ccc1N1CCOCC1)N1CCN(S(=O)(=O)c2ccc(F)cc2)CC1`: 5.85%; for `Cl.c1cc(Nc2ncnc3sc4c(c23)CCC4)ccn1`: 7.38%.
On to `COc1ccc(C/C(N)=N/OC(=O)c2ccc(Cl)cc2)cc1`, for which the “hERG current change (%, negative = inhibition) at 1uM” value came to 13.7%.
The same measure for `Cc1cc(CNC(=O)COc2c(F)c(F)cc(F)c2F)c2ccccc2n1`: 3.64%; for `CCC(=O)Nc1cccc(NC(=S)NC(=O)c2ccc(Cl)cc2Cl)c1`: 2.34%.
Under `COc1ccccc1/C=C(/C(=O)OCC(N)=O)c1ccccc1` stands 10.6%; under `Cc1cc(N2CCN(C/C=C/c3ccccc3)CC2)n2ncnc2n1`, -52.2%.
`CC1CC(C)CN(S(=O)(=O)c2ccc(NC(=O)C3COc4ccccc4O3)cc2)C1` (centres unmarked): the “hERG current change (%, negative = inhibition) at 1uM” value is recorded as 12.1%.
Under `COc1ccc(NC(=O)CC2C(=O)NC3CCCCC3N2C(=O)c2ccc(F)cc2)cc1` (centres unmarked) stands 11.5%; under `C/C(=N\NC(=O)c1ccc(OC2CCCC2)cc1)c1ccc(O)cc1`, 12.9%; under `CC1CN(C)C(C)C/C1=N/Oc1ccccc1[N+](=O)[O-].Cl` (centres unmarked), 2.66%.
Consider `CC1C/C(=C/c2cccs2)C(=O)/C(=C/c2cccs2)C1` (centres unmarked), for which the “hERG current change (%, negative = inhibition) at 1uM” value was 11.7%.
Take `O=C1Nc2ccccc2C(O)(C(=O)NCc2ccc3c(c2)OCO3)N1c1ccc(Cl)c(Cl)c1` (centres unmarked): the “hERG current change (%, negative = inhibition) at 1uM” value was found to be 18.1%.
In the case of `Cc1ccc2cc(CCNC(=O)CC(C)C)c(=O)[nH]c2c1`, the “hERG current change (%, negative = inhibition) at 1uM” value came to 7.29%.
As for `O=C(Cn1cnc2c(nnn2-c2ccccc2)c1=O)NCc1ccc(F)cc1`, the “hERG current change (%, negative = inhibition) at 1uM” value is 1.19%.
As to `COC(=O)c1cccc(Nc2ncnc3ccc(C)cc23)c1`, the “hERG current change (%, negative = inhibition) at 1uM” value was -3.79%.
The same measure for `O=C(COC(=O)c1ccc(O)cc1)Nc1nccs1`: 19.3%; for `Cc1ccc(S(=O)(=O)NCCC(=O)NCC(c2cccs2)N(C)C)cc1` (centres unmarked): 3.8%; for `CCc1ccccc1NC(=O)c1cc2ncc(Br)cn2n1`: 14.8%.
Turning to `CCOc1ccc(S(=O)(=O)N(CC(=O)N2CCC(C(N)=O)CC2)c2ccc(F)cc2)cc1`, the “hERG current change (%, negative = inhibition) at 1uM” value is on record as -11%.
The same measure for `Cn1cc(/C=C/C(=O)N2CCCC(C(=O)c3cccc(C(F)(F)F)c3)C2)cn1` (centres unmarked): 1.1%; for `Cc1ccc(-n2nc3c(c2NC(=O)c2ccc4c(c2)OCO4)CS(=O)(=O)C3)cc1C`: 13.1%.
`O=C(c1ccc(Cl)cc1)N1CCCC(C(=O)N2CCc3ccccc3C2)C1` (centres unmarked): the “hERG current change (%, negative = inhibition) at 1uM” value is recorded as -1.16%.
Under `Cc1ccc([N+](=O)[O-])cc1N/C=C1\CCc2ccccc2C1=O` stands 7.95%.
For `Cc1ccc(-c2ccnc3nc(Sc4ncc(C(F)(F)F)cc4Cl)nn23)cc1`, the “hERG current change (%, negative = inhibition) at 1uM” value is recorded as 7.96%.
In the case of `Cc1cccc(C)c1NC(=O)C1CCCNC1` (centres unmarked), the “hERG current change (%, negative = inhibition) at 1uM” value is given as -11.5%.
The same measure for `COc1ccc(NS(=O)(=O)c2cccc(C(=O)NNC(=O)c3cncc(Br)c3)c2)cc1`: 11.7%; for `COc1cccc2nc3cc(C)c(C)cc3nc12`: 10.3%; for `CCCNC(=O)N1CCN(C(=O)NCCC)CC1`: 11.3%.
With `Cc1ccc(-n2cc(CNCCN3CCOC3=O)c(-c3ccc(F)cc3)n2)cc1`, the “hERG current change (%, negative = inhibition) at 1uM” value is listed as -6.78%.
Regarding `CCS(=O)(=O)N1CCC(C(=O)NCc2ccccc2OC)CC1`, the “hERG current change (%, negative = inhibition) at 1uM” value is listed as 2.28%.
As for `c1cncc(-c2nnc3sc(-c4ccco4)nn23)c1`, the “hERG current change (%, negative = inhibition) at 1uM” value was -5.51%.
The same measure for `COc1ccc(S(=O)(=O)n2cnc3cc(C)c(C)cc32)cc1C`: 11%.
With `CCOC(=O)c1[nH]c(C)c(C(=O)N2CCN(C(=O)OCC)CC2)c1CC`, the “hERG current change (%, negative = inhibition) at 1uM” value was 12.4%.
Under `COc1cc(C(=O)NNC(=O)c2ccc(NC(C)=O)cc2)cc(OC)c1OC` stands 9.47%.
